# Measured values reported in ChEMBL document CHEMBL4888484, “Replenishing the malaria drug discovery pipeline: Screening and hit evaluation of the MMV Hit Generation Library 1 (HGL1) against asexual blood stage Plasmodium falciparum ,using a nano luciferase reporter read-out” (2022).
# Among all 150,000 compounds or so, about 540 (0.36%) showed an effect of 50% or more. Some of the results follow.
# Tested on: Plasmodium falciparum
# Experiment: Primary screen in NF54 nanoGlo assay, in single point, at 2uM, 72h; a lower Z score goes with more inhibition
# Assay type: functional, Erythrocyte
# Settings: timepoint 72 hour
Structure (SMILES),% Inhibition,Z score
Clc1ccccc1CNc1nn2cnnc2c2ccccc12,-3%,0.36
CCOC(=O)c1nc(NCCN(Cc2ccccc2)C(C)C)c2c(C)noc2n1,8%,-1.58
Cc1csc(NC(=O)CCOCC(C)C)n1,-3%,0.48
Cc1cccc(=O)n1CCCNC(=O)c1nc(C(C)C)cs1,-13%,2.44
O=S(=O)(C1COC1)N1CCN(c2cc(C3CC3)n[nH]2)CC1,-4%,0.67
Cc1cc(Nc2ccc(C)c(F)c2)n2nc(-c3ccco3)nc2n1,-2%,0.38
CCc1cc(C(=O)N2CCOCC2)c2c(C3CC3)nn(-c3ccccc3F)c2n1,27%,-3.7
Cc1nc([C@H](C)NC(=O)c2cc(Cn3cnc4ccccc43)[nH]n2)n[nH]1,-2%,0.28
CCc1nocc1CN(C)S(=O)(=O)c1cc(Cl)c(C)c(C(=O)O)c1,11%,-1.68
O=C(Cn1nc2c3ccc(F)cc3ncn2c1=O)Nc1ccc2c(c1)OCO2,-5%,0.85
COC[C@H](C)n1c(CCCC(=O)N2CCc3n[nH]cc3C2)nc2cccnc21,-4%,0.68
Cc1noc(C)c1CN1CC2(CCCCC2)C[C@@H]1COc1ccncc1,-13%,2.21
Cc1nccn1-c1ccccc1Cn1cc([C@H]2CCOC2)nn1,-16%,1.76
CCc1nn2c(c1-c1ccc(C)cc1)NC(=O)[C@@H]2CC(=O)O,32%,-3.64
CCN(CC)c1ccc(NC(=O)CCc2nnc3ccc(N4CCCCC4)nn23)c(C)c1,6%,-1
CCC(C)(C)NC(=O)Cn1c(=O)c2nnc(C)n2c2ncccc21,-6%,0.77
O=C(NCc1nc2c(F)c(F)ccc2[nH]1)OCC1CC1,-3%,0.43
CC[C@H]1C(=O)NCCCN1C(=O)c1cc(C)nc2cc(C)nn12,-17%,2.38
O=C1CCC(=O)N1C1CN(S(=O)(=O)C2CCCCC2)C1,-3%,0.51
O=C(Nc1ncc(C(O)(C(F)(F)F)C(F)(F)F)s1)c1ccccc1Cl,-1%,0.19
COc1cccc([C@H]2CC(=O)Nc3n[nH]cc32)c1OCCc1ccccc1,-1%,0.1
C[C@H](NCc1cc2ccccc2c(=O)[nH]1)c1nc(C2CCCC2)no1,28%,-3.16
CC(=O)N1CCC(NC(=O)C(O)c2cc(Cl)cc(Cl)c2)C1 (stereo unspecified),-7%,1.09
